Measured values taken from PubChem BioAssay AID1645882 (National Center for Advancing Translational Sciences (NCATS), 2021).
Among all 16,000 compounds or so, about 120 (0.75%) were called active. Inconclusive results (about 4%) are left out. Calls follow the shape of the dose curve; as a rule, active = well fitted inhibition curve with a large enough effect; inconclusive = small, poorly fitted or top-dose-only effect; inactive = no such curve, though single readings can be large or run the other way. The list shows a part of the results. Where a SMILES comes first, the peptide text is derived from it. The star is where a group is joined. X3 = NCCCC[C@@H](CN)N*

Biological target: Rap guanine nucleotide exchange factor 3 (Homo sapiens) (UniProt O95398)
Test: Validation qHTS for antagonist of cAMP-regulated guanine nucleotide exchange factor 3 (EPAC1);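 also: plate controls were DMSO for no effect and ATA control for full effect; nearly all actives have a fitted effect of over 75% in size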
Details: EPAC1 Rap1B-BODIPY-GDP exchange, fluorescence; series mostly up to 150 µM; activity change, negative = inhibition: at the top concentration
How it was run: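 EPAC1 (100 nM) mixed with 250 nM RAP1B-BODIPY-GDP and 50 uM GDP; compounds in concentration series, 5 min at room temperature. Fluorescence (ex 480/em 540 nm) read every 5 min for 30 min; normalized to ATA control and DMSO.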

UniProt O95398, sequence (O95398 whole entry, looked up): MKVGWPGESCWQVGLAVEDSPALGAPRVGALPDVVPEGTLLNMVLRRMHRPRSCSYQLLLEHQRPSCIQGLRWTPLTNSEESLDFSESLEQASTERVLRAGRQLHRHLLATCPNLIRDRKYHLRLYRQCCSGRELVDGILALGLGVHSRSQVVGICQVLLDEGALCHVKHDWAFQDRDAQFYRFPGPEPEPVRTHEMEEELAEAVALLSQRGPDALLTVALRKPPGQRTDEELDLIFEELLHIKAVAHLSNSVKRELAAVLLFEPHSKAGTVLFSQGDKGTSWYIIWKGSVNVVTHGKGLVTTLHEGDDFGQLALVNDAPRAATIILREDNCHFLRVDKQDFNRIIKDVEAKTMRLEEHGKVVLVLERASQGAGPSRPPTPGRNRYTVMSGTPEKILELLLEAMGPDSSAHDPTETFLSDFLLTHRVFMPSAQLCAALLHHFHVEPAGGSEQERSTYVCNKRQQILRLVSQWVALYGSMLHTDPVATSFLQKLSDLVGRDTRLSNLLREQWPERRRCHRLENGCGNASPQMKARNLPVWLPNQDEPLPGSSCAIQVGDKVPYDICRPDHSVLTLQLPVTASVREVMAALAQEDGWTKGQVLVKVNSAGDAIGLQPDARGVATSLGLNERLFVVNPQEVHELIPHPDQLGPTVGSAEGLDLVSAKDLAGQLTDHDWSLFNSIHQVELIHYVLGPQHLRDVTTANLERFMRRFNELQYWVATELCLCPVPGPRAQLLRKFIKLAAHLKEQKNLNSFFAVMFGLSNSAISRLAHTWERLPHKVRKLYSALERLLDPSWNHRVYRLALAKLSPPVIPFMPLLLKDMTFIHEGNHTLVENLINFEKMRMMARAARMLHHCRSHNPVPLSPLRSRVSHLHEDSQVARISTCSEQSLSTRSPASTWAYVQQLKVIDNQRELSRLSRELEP

| SMILES | activity change, negative = inhibition |
| --- | --- |
| Clc1ccccc1CNCC1CCC(CNCc2ccccc2Cl)CC1 (centres undefined) | inactive: -11.7% |
| C=C1CCC(C2CC(=O)OC2=O)C(=O)CCC2C1CC2(C)C (centres undefined) | inactive: 0.371% |
| CCC(=O)N[C@@H]1Cc2ccccc2[C@@H](c2ccccc2)C1 | inactive: -3.17% |
| CC1(C)S[C@@H]2[C@H](NC(=O)C3(N)CCCCC3)C(=O)N2[C@H]1C(=O)O | inactive: 14% |
| O=C(O)c1cc(=O)c2c(Cl)cc(Cl)cc2[nH]1 | inactive |
| CCC(=O)OCC(=O)[C@@]1(OC(=O)CC)[C@H](C)C[C@H]2[C@@H]3CCC4=CC(=O)C=C[C@]4(C)[C@@]3(F)[C@@H](O)C[C@@]21C | inactive: -13.2% |
| COC(=O)N1CCC2(CC1)CCN(c1ccccn1)CC2 | inactive: 12.1% |
| Cc1nc2cnc(N3CCN(C)CC3)nc2n(Cc2ccc(F)cc2)c1=O | inactive: -1.33% |
| COc1cc(C2=N/C(=C\c3ccccc3)C(=O)O2)cc(OC)c1OC | inactive: 27.5% |
| C[C@@H]1CCC[C@H](C)N1 | inactive: 11.8% [at 75.8 µM] |
| Oc1cccc(O)c1 | inactive: -4.68% |
| O=C(Nc1nccs1)[C@@H]1CC=C[C@@H]2CCN(C3CC3)C(=O)[C@@H]21 | inactive: -17.4% |
| COc1cc2c(cc1O)-c1ccccc1CN(C)C2 | inactive: 1.4% |
| C[C@H]1CN(CCc2ccccc2)C(=O)[C@@H]1CC(=O)NCc1ccccc1 | inactive: 12.6% |
| COc1cccc(-c2cc(NCc3ccccc3OC)ncn2)c1 | inactive: -19.1% |
| CCCCN(CCCC)CC(O)c1cc(Cl)cc2c1-c1ccc(Cl)cc1/C2=C/c1ccc(Cl)cc1 (centres undefined) | inactive: 7.97% |
| COc1cc2[nH]c(C)c(CCN3CCN(c4ccccc4)CC3)c2cc1OC | inactive: 25.8% |
| Cc1cc(O)cc(C)c1Cl | inactive |
| Cc1noc(C)c1-c1cc(Nc2ccccc2)ncn1 | inactive: -0.685% |
| Cc1cccc(C)c1NC(=O)CN1CCCC1 | inactive: 7.75% |
| O=C(c1ccco1)N1CCC2(CC1)CCN(c1cccc(-c3ccccc3)c1)CC2 | inactive: 2.01% |
| CC(C)(C)c1ccc(S(=O)(=O)/C=C/C#N)cc1 | inactive: 8.47% [at 75.8 µM] |
| CN(C)Cc1ccccc1-c1cncnc1Nc1ccc(F)cc1 | inactive: 20.1% |
| CCNc1ncc2ncc(=O)n(CCc3ccccc3)c2n1 | inactive: 12.6% |
| COc1nccnc1NS(=O)(=O)c1ccc(N)cc1 | inactive: 309% |

| SMILES | activity change, negative = inhibition |
| --- | --- |
| CC(N)CCCC(C)(C)O (centres undefined) | inactive: 23.9% |
| Cn1cc(-c2nc3cnc(Oc4ccccc4)nc3n(C3CC3)c2=O)c2ccccc21 | inactive: 7.29% |
| CCCCC[C@H](O)/C=C/[C@@H]1[C@H]2C/C(=C/CCCC(=O)O)C[C@H]2C[C@H]1O | inactive: 24.7% |
| COc1cccc(Nc2ncc3ncc(=O)n(Cc4ccc(F)cc4)c3n2)c1 | inactive: 15.5% |
| CCCOc1ccc2nc(NC(=O)OC)sc2c1 | inactive: -3.51% |
| N#CCC(=O)NN | inactive: 11.6% |
| CC(=C(CCOP(=O)(O)O)SC(=O)c1ccccc1)N(C=O)Cc1cnc(C)nc1N | inactive: -3.25% |
| COc1ccc2cc(CN(C(=O)c3cc(C)nn3C)C3CC3)c(-c3ccc(Cl)cc3)nc2c1 | inactive: -12% |
| O=[N+]([O-])c1ccc(CSc2ncnc3c2ncn3[C@@H]2O[C@H](CO)[C@@H](O)[C@H]2O)cc1 | inactive: -10.5% [at 75.8 µM] |
| CNC[C@@H](O)[C@@H](O)[C@H](O)[C@H](O)CO | inactive: 12.4% |
| O=Nc1ccc2oc(=O)ccc2c1 | inactive: 6.91% [at 75.8 µM] |
| CC[C@H]1OC(=O)[C@H](C)[C@@H](O[C@H]2C[C@@](C)(OC)[C@@H](O)[C@H](C)O2)[C@H](C)[C@@H](O[C@@H]2O[C@H](C)C[C@H](N(C)C)[C@H]2O)[C@](C)(O)C[C@H](C)C(=NOCOCCOC)[C@H](C)[C@@H](O)[C@]1(C)O | inactive: 23.3% |
| O=S(=O)(c1ccccc1)N1CCC2(CCCN(Cc3ccncc3)C2)CC1 | inactive: 21.2% |
| O=C(O)c1ccccc1S | inactive: 27% |
| CN(C)c1ncc2nc(-c3cc(F)cc(F)c3)c(=O)n(CCC#N)c2n1 | inactive: 2.14% |
| COC(=O)N1CCC[C@@]2(CCN(c3ccccc3)C2)C1 | inactive: -16.4% |
| C1CCc2nnnn2CC1 | inactive |
| c1cncc(CNc2cc(-c3ccc4c(c3)OCO4)ncn2)c1 | inactive: 13.1% |
| Cn1cccc1C(=O)N1CCC[C@@]2(CCN(Cc3ccc(C#N)cc3)C2)C1 | inactive: 17.5% |
| CC1=C(C(=O)O)N2C(=O)C(NC(=O)C(N)c3ccccc3)C2SC1 (centres undefined) | inactive: 20.7% |
| CN(C(Cc1ccc(OS(=O)(=O)c2cccc3cnccc23)cc1)C(=O)N1CCN(c2ccccc2)CC1)S(=O)(=O)c1cccc2cnccc12 (centres undefined) | inactive: 42.8% |
| Cc1cnc(CNc2ccnc(-c3cccc(C#N)c3)n2)cn1 | inactive: 3.35% |
| COc1ccccc1CN1CCCC2(CCN(C(=O)c3cccn3C)CC2)C1 | inactive: 15% |
| COc1cccc(Cn2c(=O)c(-c3ccccc3)nc3cncnc32)c1 | inactive: -3.33% |
| COc1ccc(/C=C/C(=O)/C=C/c2ccc(OC)cc2OC)c(OC)c1 | inactive: 11.3% |

| SMILES | activity change, negative = inhibition |
| --- | --- |
| C[S+](C)CCC(N)C(=O)O (centres undefined) | inactive: -15.2% |
| COc1cc(=O)n2c(c1C(=O)N(C)Cc1nonc1C)CCN(C(=O)c1ccc(C)c(C)c1)CC2 | inactive: 16.8% |
| Cc1ccc2ccccc2n1 | inactive: 20.8% |
| Cc1[nH]c(=O)c(C#N)cc1-c1ccc2nccn2c1 | inactive |
| COc1ccc2[nH]cc(CCNc3cc(-c4cccc(C#N)c4)ncn3)c2c1 | inactive: -24.4% |
| CN(C)c1ncc2nc(-c3ccc(Cl)cc3)c(=O)n(C[C@H]3CCCO3)c2n1 | inactive: 1.16% |
| Cc1cc2nccc(C)c2cc1C | inactive: -14.1% |
| CC(=O)O[C@H]1C(=O)[C@@]2(C)[C@H]([C@H](OC(=O)c3ccccc3)[C@]3(O)C[C@H](OC(=O)[C@H](O)[C@@H](NC(=O)c4ccccc4)c4ccccc4)C(C)=C1C3(C)C)[C@]1(OC(C)=O)CO[C@@H]1C[C@@H]2O | inactive |
| CCn1c(-c2ccccc2F)nc2cc(NC(C)=O)cc(C(=O)N(C)Cc3c(C)nc4ccccn34)c21 | inactive: 8.89% |
| CS(=O)(=O)N1CCC[C@@]2(CCN(Cc3nccs3)C2)C1 | inactive: 11.9% |
| CC(=O)[O][Al][O]C(C)=O | inactive: 3.89% |
| O=C(Nc1ccccc1)N1CC2(CCN(S(=O)(=O)c3ccccc3)CC2)C1 | inactive: 4.86% |
| CCCCCCCCOc1ccc(C(=O)c2ccccc2)c(O)c1 | inactive: 9.29% |
| CCN(CC)C(=O)[C@]1(c2ccccc2)C[C@@H]1CN | inactive: 10.9% |
| NC1CONC1=O (centres undefined) | inactive |
| COC(=O)C[C@](O)(CCCC(C)(C)O)C(=O)O[C@@H]1C(OC)=C[C@]23CCCN2CCc2cc4c(cc2[C@H]13)OCO4 | inactive: 7.94% |
| CCCS(=O)(=O)NCc1c(C)ncc2c1CCN(C(=O)c1cccc(C(F)(F)F)c1)C2 | inactive: -0.911% |
| Clc1ccc(/C=C/c2ccnc3ccccc23)c(Cl)c1 | inactive: 22.5% |
| COc1ccc2cc(CNCc3nonc3C)c(N3CCCC(CO)C3)nc2c1 (centres undefined) | inactive: -23.4% |
| CCCCCCCCCCCCCCCCCCc1ccc(C(=O)/C=C/C(=O)O)cc1 | inactive: 33.4% [at 201 µM] |
| COC(=O)C1[C@H]2SC(C)(C)C(C(=O)OC)N2C(=O)N1Cc1ccccc1 (some centres undefined) | inactive: 6.53% |
| CC[C@H](CC[C@@H](C)C1CC[C@H]2[C@@H]3CC=C4C[C@@H](O)CC[C@]4(C)[C@H]3CC[C@]12C)C(C)C (some centres undefined) | inactive: 10.3% |
| COC(=O)/C=C/C(C)=C/C=C/C(C)=C/C=C/C=C(C)/C=C/C=C(C)/C=C/C(=O)O | inactive: 6.15% |
| O=C(CCN1Cc2ccccc2OC(c2ccccc2F)C1)N1CCC(N2CCCC(O)C2)CC1 (centres undefined) | inactive: 1.97% |
| COc1ccc(Oc2ncc3nc(-c4cn(C)c5ccccc45)c(=O)n(CCC#N)c3n2)cc1 | inactive: -19.9% |

| SMILES | activity change, negative = inhibition |
| --- | --- |
| Cc1cnc(CNc2ncncc2-c2ccc(C(=O)N(C)C)cc2)cn1 | inactive: 2.62% |
| CCCCN=C(N)N=C(N)N | inactive: 10.2% |
| CS(=O)(=O)N1CCC2(CCCN(c3ccccn3)C2)CC1 | inactive: 13.1% |
| COc1ccc(CN2CCOc3ccc(CN4CCCCC4CO)cc3C2)c(OC)c1 (centres undefined) | inactive: 1.71% |
| COc1cccc(Cn2c(=O)cnc3cnc(N4CCN(C)CC4)nc32)c1 | inactive: 6.93% |
| Cc1cnc(CNc2nc(-c3ccc(N(C)C)cc3)nc3ccccc23)cn1 | inactive: -5.65% |
| COc1c(N2C[C@@H]3CCCN[C@H]3C2)c(F)cc2c(=O)c(C(=O)O)cn(C3CC3)c12 | inactive |
| CCCN(CCC)CCc1cccc2c1CC(=O)N2 | inactive |
| N=C(N)c1ccc(N)cc1 | inactive: -13.3% [at 75.8 µM] |
| CCNc1ncc2nc(CCc3ccccc3)c(=O)n(Cc3ccc(F)cc3)c2n1 | inactive: 20.8% |
| Cc1noc(C)c1C(=O)N1CCC[C@@]2(CCN(C(=O)Nc3cccc(F)c3)C2)C1 | inactive: 20.5% |
| C/C=C/c1ccc(OC)cc1 | inactive |
| N[C@@H](Cn1ccc(=O)n(Cc2ccccc2C(=O)O)c1=O)C(=O)O | inactive: -16.5% |
| CC(=O)OC1CC(OC(C)=O)[C@]2(C)C(CC(OC(C)=O)[C@]3(C)C2CC[C@@]2(C)C(c4ccoc4)OC(=O)C4O[C@]432)C1(C)C (some centres undefined) | inactive: -10.6% |
| C=C1C2CC[C@]3(CCC4[C@@]5(C)CCC[C@@]4(CN(CCO)C5)[C@@H]3C2)[C@@H]1O (some centres undefined) | inactive: 12.9% |
| CC(C(=O)O)C1CCC2C3CC=C4CC(O)CC[C@@]4(C)C3CC[C@]12C (some centres undefined) | inactive: 13.2% |
| Cn1c(=O)c(-c2cccs2)nc2cnc(N3CCOCC3)nc21 | inactive: 6.17% |
| C[C@H](NC(=O)CNC(=O)[C@@H](NC(=O)[C@H](Cc1ccccc1)NC(=O)CNC(=O)CNC(=O)[C@@H](N)Cc1ccccc1)[C@@H](C)O)C(=O)N[C@@H](CCCN=C(N)N)C(=O)N[C@@H](CCCCN)C(=O)N[C@@H](CO)C(=O)N[C@@H](C)C(=O)N[C@@H](CCCN=C(N)N)C(=O)N[C@H](CN)CCCCN (H-FGGFTGARKSAR-X3) | inactive: 11.7% [at 15.3 µM] |
| CCN1CCCC1CNC(=O)c1cnn(-c2ncc(C)c(-c3ccc(F)cc3)n2)c1C(C)C (centres undefined) | inactive: 18.3% |
| CCCCC[C@H](O)/C=C/[C@H]1[C@H](O)CC(=O)[C@@H]1C/C=C\CCCC(=O)O | inactive: 13.9% |
| COc1cccc(Nc2ncc3nc(-c4cccs4)c(=O)n(-c4ccccc4)c3n2)c1 | inactive: 158% |
| Cc1cccc(CNc2ncnc3ccc(-c4ccc5c(c4)OCO5)cc23)c1 | inactive: 21.5% |
| CCCn1c(=O)c2[nH]c(C3CCCC3)nc2n(CCC)c1=O | inactive |
| Cc1cccc(C)c1NC(=O)c1cc(S(N)(=O)=O)c(Cl)cc1O | inactive: 14.9% |
